{"source": "PubChem BioAssay AID588453", "about": "(National Center for Advancing Translational Sciences (NCATS), 2011)", "note": "In all, about 390,000 compounds went through this assay and about 4,000 (1%) were called active. This list was built around the results that the source calls inconclusive (neither active nor inactive); the mix of calls is not that of the screen. The call rests on the fitted dose curve; in most records, active means well fitted inhibition curve with a large enough effect; inconclusive means small, poorly fitted or top-dose-only effect; inactive means no such curve, though single readings can be large or run the other way. Potencies of inconclusive entries are doubtful fits and often do not repeat. On the % scale 0 is the no-effect control and ±100 the full control effect; potency means the concentration at half of the fitted maximal effect; tags describe the fitted curve by direction and shape.", "data": [{"target": "Thioredoxin reductase 1, cytoplasmic (Rattus norvegicus) (UniProt O89049)", "sequence (O89049 whole entry, looked up)": "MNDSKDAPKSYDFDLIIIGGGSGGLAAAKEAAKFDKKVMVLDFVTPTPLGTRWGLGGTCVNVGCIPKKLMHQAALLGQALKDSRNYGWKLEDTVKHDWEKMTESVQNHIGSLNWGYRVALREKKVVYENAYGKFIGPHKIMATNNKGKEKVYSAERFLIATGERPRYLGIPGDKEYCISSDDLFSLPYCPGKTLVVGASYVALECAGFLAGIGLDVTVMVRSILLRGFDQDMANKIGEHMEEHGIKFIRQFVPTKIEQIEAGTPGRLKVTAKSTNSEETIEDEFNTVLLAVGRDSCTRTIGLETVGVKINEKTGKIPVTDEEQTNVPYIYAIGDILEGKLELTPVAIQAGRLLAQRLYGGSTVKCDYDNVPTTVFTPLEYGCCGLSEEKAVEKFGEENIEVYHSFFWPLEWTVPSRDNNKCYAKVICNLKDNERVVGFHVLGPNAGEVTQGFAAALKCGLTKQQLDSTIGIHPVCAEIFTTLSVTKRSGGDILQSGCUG", "test": "qHTS Assay for Inhibitors of Mammalian Selenoprotein Thioredoxin Reductase 1 (TrxR1): qHTS; further: nearly all actives have a fitted effect of over 65% in size", "settings": "recombinant rTrxR1, NADPH fluorescence consumption, selenite substrate; series mostly up to 114 µM; activity change, negative = inhibition: at the top concentration", "how_it_was_run": "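Rat TrxR1 (90 nM in the dispensed reagent) was pre-reduced with 400 uM NADPH for 5 min at room temperature, then incubated with compound for 15 min. After 400 uM selenite was added, NADPH fluorescence (Ex 340/Em 450 nm) was followed for 8 min.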", "values": [{"smiles": "CCNC(=S)Nc1cc(OCC)c(N2CCOCC2)cc1OCC", "Potency": "inconclusive: 17.8 µM [inhibitor, partial curve, poor fit]"}, {"smiles": "CN1CCN(Cc2cc(COCc3ccccc3)c3cccnc3c2O)CC1", "Potency": "inconclusive: 79.4 µM [inhibitor, partial curve]"}, {"smiles": "O=C(O/N=C1\\CCCCC1c1ccc([N+](=O)[O-])cc1[N+](=O)[O-])c1c(F)cccc1F", "note": "(stereo not drawn)", "Potency": "inconclusive: 25.1 µM [inhibitor, single point]"}, {"smiles": "COc1cc(/C=C/C(=O)OCC(=O)N2CCN(C(=O)c3ccco3)CC2)ccc1O", "Potency": "inconclusive: 89.1 µM [inhibitor, single point]"}, {"smiles": "COCCNC(=O)c1ccc(CS(=O)(=O)c2ccccc2)o1", "Potency": "inconclusive: 70.8 µM [inhibitor, single point]"}, {"smiles": "CCN(CC)CCNC(=O)c1c2c(nc3ccccc13)C(=O)N(C1CCCCC1)C2", "activity change, negative = inhibition": "inactive: 21.7% [at 57.1 µM]"}, {"smiles": "O=C(N/N=C/C=C/c1ccco1)c1cccs1", "Potency": "inconclusive: 28.2 µM [inhibitor, single point]"}, {"smiles": "CCCn1c(SCC(=O)Nc2cccc(C)n2)nc2c1c(=O)n(C)c(=O)n2C", "Potency": "inconclusive: 4.47 µM [inhibitor, single point]"}, {"smiles": "CC(C)c1cc(CN2CCN(CCC#N)CC2)cc(C(C)C)c1O", "Potency": "inconclusive: 3.16 µM [inhibitor, single point]"}, {"smiles": "O=C(NC(=S)NC1CCCc2ccccc21)c1ccc(F)cc1", "note": "(stereo not drawn)", "Potency": "inconclusive: 15.8 µM [inhibitor, single point]"}, {"smiles": "O=C(NC1CCCCCC1)c1ccc(CS(=O)Cc2cccc(Cl)c2)o1", "note": "(stereo not drawn)", "Potency": "inconclusive: 50.1 µM [inhibitor, partial curve]"}, {"smiles": "Cc1[nH]nc2c1C(CCc1ccccc1)C(C#N)=C(N)O2", "note": "(stereo not drawn)", "Potency": "inconclusive: 8.91 µM [inhibitor, full curve]"}, {"smiles": "Cn1nc(C(F)(F)F)c2cc(C(=O)Nc3ccc(F)cc3)sc21", "activity change, negative = inhibition": "inactive: 18.8% [at 11.4 µM]"}, {"smiles": "O=C(C[n+]1cccc2ccccc21)c1ccc(Cl)cc1", "Potency": "inconclusive: 79.4 µM [inhibitor, single point]"}, {"smiles": "Oc1ccc(C2C(c3ccccc3)=NN=C(c3ccc(Cl)cc3)N2O)c(O)c1", "note": "(stereo not drawn)", "Potency": "inconclusive: 89.1 µM [inhibitor, single point]"}, {"smiles": "CCC(CC)C1C(C#N)=C(N)SC(N)=C1C#N", "Potency": "inconclusive: 22.4 µM [inhibitor, partial curve, poor fit]"}, {"smiles": "COC(=O)c1c(C)oc(C)c1S(=O)(=O)N(Cc1ccccc1)C(C)C", "Potency": "inconclusive: 28.2 µM [inhibitor, single point]"}, {"smiles": "COc1ccccc1CN(C)C(=O)c1ccc2c(c1)NC(=O)CS2", "activity change, negative = inhibition": "inactive: -1.3%"}, {"smiles": "CCOc1ccc(NS(=O)(=O)c2ccc3[nH]c4c(c3c2)CCCCC4)cc1", "activity change, negative = inhibition": "inactive: 24.3%"}, {"smiles": "Cc1ccc2nc(-c3ccc(C)o3)c(Nc3ccc(F)cc3)n2c1", "Potency": "inconclusive: 56.2 µM [inhibitor, single point]"}, {"smiles": "COCCCNC(=O)CS(=O)Cc1nc(-c2ccccc2C)oc1C", "note": "(stereo not drawn)", "Potency": "inconclusive: 22.4 µM [inhibitor, partial curve, poor fit]"}, {"smiles": "Nc1ccc(-c2n[nH]c(=O)c3ccccc23)cc1N", "activity change, negative = inhibition": "inactive: -21.1%"}, {"smiles": "O=C(O)c1ccccc1NC(c1ccccc1)c1ccc(Cl)cc1", "note": "(stereo not drawn)", "activity change, negative = inhibition": "inactive: -15.8% [at 57.1 µM]"}, {"smiles": "Cc1c(C(=O)Nc2ccc(F)c(C(F)(F)F)c2)sc2nc(-c3ccccc3)cn12", "activity change, negative = inhibition": "inactive: 12.4% [at 57.1 µM]"}, {"smiles": "Cc1cc(OCC(=O)N2CCN(c3ccccc3)CC2)c2c(C)c(C)c(=O)oc2c1", "Potency": "inconclusive: 35.5 µM [inhibitor, single point]"}, {"smiles": "COc1ccc2cc(CN(CCCN3CCOCC3)Cc3nnnn3C3CCCC3)c(=O)[nH]c2c1", "Potency": "inconclusive: 12.6 µM [inhibitor, partial curve]"}, {"smiles": "O=C(Nc1nc2ccc(F)cc2s1)c1nc(S(=O)(=O)Cc2ccccc2F)ncc1Cl", "Potency": "inconclusive: 3.16 µM [inhibitor, full curve]"}, {"smiles": "CCc1ccc(CNCc2cccs2)cc1", "activity change, negative = inhibition": "inactive: 18.6% [at 57.1 µM]"}, {"smiles": "COC(=O)Cn1c(=NC(=O)CCS(=O)(=O)c2ccccc2)sc2c(OC)ccc(OC)c21", "Potency": "active: 28.2 µM"}, {"smiles": "COc1ccc(Cc2nnc(SCc3nc4ccccc4c(=O)[nH]3)n2C)cc1", "Potency": "inconclusive: 79.4 µM [inhibitor, single point]"}, {"smiles": "CNCc1cc2ccc(C)cc2[nH]c1=O", "Potency": "active: 25.1 µM"}, {"smiles": "CC1CCCC(NC(=O)COC(=O)/C=C/c2ccc([N+](=O)[O-])cc2)C1C", "note": "(stereo not drawn)", "activity change, negative = inhibition": "inactive: 0.6%"}, {"smiles": "C[n+]1cc2c3c(ccc2c2ccc4cc5c(cc4c21)OCO5)OCO3", "Potency": "inconclusive: 79.4 µM [inhibitor, partial curve, poor fit]"}, {"smiles": "COCCNC(=O)CS(=O)Cc1nc(-c2ccc(Cl)cc2)oc1C", "note": "(stereo not drawn)", "Potency": "inconclusive: 22.4 µM [inhibitor, single point]"}, {"smiles": "COc1ccccc1N1CCN(C2CCCN(C(=O)c3cccc(-c4ccco4)c3)C2)CC1", "note": "(stereo not drawn)", "Potency": "inconclusive: 56.2 µM [inhibitor, partial curve]"}, {"smiles": "Cc1nc(-c2ccc(Cl)cc2)sc1C(=O)NN", "Potency": "inconclusive: 0.282 µM [inhibitor, full curve]"}, {"smiles": "CCCCCCOC(=O)/C=C/c1c(C)[nH]c(=O)[nH]c1=O", "Potency": "inconclusive: 22.4 µM [inhibitor, full curve, poor fit]"}, {"smiles": "CCOc1ccccc1CNc1ccc(O)cc1", "Potency": "inconclusive: 25.1 µM [inhibitor, single point]"}, {"smiles": "O=C(Nc1nnc(-c2ccco2)o1)c1ccc([N+](=O)[O-])s1", "Potency": "inconclusive: 28.2 µM [inhibitor, partial curve, poor fit]"}, {"smiles": "Cc1ccc(C)n1-c1nnc(N2CCCC(C(=O)Nc3ccccc3Br)C2)s1", "note": "(stereo not drawn)", "Potency": "inconclusive: 70.8 µM [inhibitor, single point]"}, {"smiles": "CN(C)CCCNC(=S)N(CCN(C)C)Cc1cc2cc3c(cc2[nH]c1=O)OCCO3", "Potency": "inconclusive: 12.6 µM [inhibitor, full curve]"}, {"smiles": "Cc1ccc(NC2=C(N3CCCCC3)C(=O)c3ccccc3C2=O)cc1", "Potency": "inconclusive: 31.6 µM [inhibitor, full curve]"}, {"smiles": "COc1ccc(NC(=O)c2oc3ccccc3c2NC(=O)Cc2coc3ccc(C)cc23)cc1", "Potency": "inconclusive: 89.1 µM [inhibitor, single point]"}]}]}
